Experimental data: publication PMC4336329 (PLoS ONE, 2015)
Hit rate of the full screen: of about 310,000 compounds, about 2,200 (0.71%) showed an effect of 50% or more. The effect is printed as a negative number. This is one part of the list.

Each compound was assayed against human ether-à-go-go-related gene (hERG) potassium channel (human, UniProt Q12809) (assay: primary screen, population patch clamp on CHO cells stably expressing hERG).
Chain of human ether-à-go-go-related gene (hERG) potassium channel (Q12809 whole entry, looked up): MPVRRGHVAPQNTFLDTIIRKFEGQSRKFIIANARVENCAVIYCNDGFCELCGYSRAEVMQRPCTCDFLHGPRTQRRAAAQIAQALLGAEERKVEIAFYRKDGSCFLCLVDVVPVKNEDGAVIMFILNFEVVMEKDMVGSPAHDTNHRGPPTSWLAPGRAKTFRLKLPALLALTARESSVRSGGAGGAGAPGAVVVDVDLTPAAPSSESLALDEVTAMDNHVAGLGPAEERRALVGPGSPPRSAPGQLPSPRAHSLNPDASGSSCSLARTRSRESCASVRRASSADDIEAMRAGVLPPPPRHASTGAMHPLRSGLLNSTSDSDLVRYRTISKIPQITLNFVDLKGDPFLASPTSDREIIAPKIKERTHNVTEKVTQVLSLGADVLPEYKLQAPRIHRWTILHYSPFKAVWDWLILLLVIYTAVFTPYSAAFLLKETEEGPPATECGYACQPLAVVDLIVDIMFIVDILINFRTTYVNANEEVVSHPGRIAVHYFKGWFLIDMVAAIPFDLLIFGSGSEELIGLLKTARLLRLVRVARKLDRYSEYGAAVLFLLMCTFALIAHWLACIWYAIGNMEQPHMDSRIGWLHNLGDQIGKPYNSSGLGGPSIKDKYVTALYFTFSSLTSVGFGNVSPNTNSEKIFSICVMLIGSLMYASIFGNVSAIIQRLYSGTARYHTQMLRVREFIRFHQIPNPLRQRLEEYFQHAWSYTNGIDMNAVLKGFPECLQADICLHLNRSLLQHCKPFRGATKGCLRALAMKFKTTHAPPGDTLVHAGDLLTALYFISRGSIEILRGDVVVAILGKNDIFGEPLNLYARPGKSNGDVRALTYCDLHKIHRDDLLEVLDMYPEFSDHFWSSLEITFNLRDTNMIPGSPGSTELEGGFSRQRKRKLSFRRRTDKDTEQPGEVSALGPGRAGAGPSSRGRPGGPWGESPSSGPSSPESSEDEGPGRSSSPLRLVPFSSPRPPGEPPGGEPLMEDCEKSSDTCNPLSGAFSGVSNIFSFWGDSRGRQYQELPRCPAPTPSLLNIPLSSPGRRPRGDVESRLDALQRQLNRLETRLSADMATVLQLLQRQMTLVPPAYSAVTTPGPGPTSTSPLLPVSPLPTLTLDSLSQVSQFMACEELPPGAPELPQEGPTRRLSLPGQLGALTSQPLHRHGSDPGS
For `COc1ccc(-c2cc(=O)c3c(O)c(OC)c(O)cc3o2)cc1`, the “hERG current change (%, negative = inhibition) at 1uM” value was 0.229%.
`CCS(=O)(=O)c1ccc2oc(Nc3cc(C)cc(C)c3)nc2c1` was tested, and the “hERG current change (%, negative = inhibition) at 1uM” value was -6.52%.
For `Cc1cccn2c(=O)c3cc(C#N)c(=NC(=O)c4ccco4)n(Cc4ccco4)c3nc12`, the “hERG current change (%, negative = inhibition) at 1uM” value was -30.9%.
In the case of `COc1ccc(CN(C)CC(=O)N(C)CC(=O)Nc2ccccc2Br)cc1F`, the “hERG current change (%, negative = inhibition) at 1uM” value is reported as 0.78%.
`CC(=O)Nc1cccc([N+](=O)[O-])c1` was tested, and the “hERG current change (%, negative = inhibition) at 1uM” value was 13.1%.
With `COC(=O)[C@]1(C)CCC[C@@]2(C)C3CC[C@]4(OC(C)=O)C[C@@]3(CCC21)CC4=O` (stereo partly drawn) the “hERG current change (%, negative = inhibition) at 1uM” value was 9.38%.
`COc1cc(/C=C/C(=O)c2ccc(NS(=O)(=O)c3ccc(C)cc3)cc2)ccc1OC(F)F` was tested, and the “hERG current change (%, negative = inhibition) at 1uM” value was 13.7%.
In the case of `CCN1C(=O)/C(=C/N(C)C)c2ccccc21`, the “hERG current change (%, negative = inhibition) at 1uM” value is reported as -1.72%.
`O=Cc1ccccc1-c1cn(CN2C(=O)c3ccccc3C2=O)nn1` was tested, and the “hERG current change (%, negative = inhibition) at 1uM” value was 8.75%.
`CCN(CC)C(=O)c1ccc(NC(=O)c2cc(-n3cnnc3)ccc2Cl)cc1` was tested, and the “hERG current change (%, negative = inhibition) at 1uM” value was 13.9%.
In the case of `CCOc1cc(C(=O)N/N=C/c2ccsc2)cc(OCC)c1OCC`, the “hERG current change (%, negative = inhibition) at 1uM” value is reported as 7.19%.
With `CCC1=NN2C(=N)/C(=C\c3cccn3-c3c(C)cccc3C)C(=O)N=C2S1` the “hERG current change (%, negative = inhibition) at 1uM” value was -10.1%.
For `Cl.NCCCP(=O)(O)CCc1ccccc1`, the “hERG current change (%, negative = inhibition) at 1uM” value was 4.94%.
In the case of `CCOc1c(Cl)cc(C(=O)Nc2ccccc2-c2ccccc2)cc1Cl`, the “hERG current change (%, negative = inhibition) at 1uM” value is reported as 14.4%.
For `CCOC(=O)c1cn2nc(Oc3ccc(C(=O)OC)cc3)ccc2n1`, the “hERG current change (%, negative = inhibition) at 1uM” value was 10.4%.
`CCOc1ccccc1OCC(=O)Nc1c(C)n(C)n(-c2ccccc2)c1=O` was tested, and the “hERG current change (%, negative = inhibition) at 1uM” value was 2.2%.
`Cc1cc(N/N=C/c2ccc(N(C)C)cc2)c2ccccc2n1` was tested, and the “hERG current change (%, negative = inhibition) at 1uM” value was 12.7%.
For `COc1cccc(-n2c(-c3cccc(S(=O)(=O)N(C)C)c3)n[nH]c2=S)c1`, the “hERG current change (%, negative = inhibition) at 1uM” value was 16.8%.
With `Cn1c(=O)c2c(nc(Sc3nc4ccccc4n3CC(=O)N3CCCCC3)n2C)n(C)c1=O` the “hERG current change (%, negative = inhibition) at 1uM” value was 0.859%.
`CC1CCN(c2ccc3c(c2)S(=O)(=O)c2cccc(C(=O)NCc4cccc(F)c4)c2C3=O)CC1` was tested, and the “hERG current change (%, negative = inhibition) at 1uM” value was 13.4%.
With `Nc1cc(C(=O)O)ccc1Nc1ccccc1` the “hERG current change (%, negative = inhibition) at 1uM” value was -7.46%.
`COc1ccc(N2C(=O)CC(Sc3ncn[nH]3)C2=O)c(OC)c1` (stereo not drawn) was tested, and the “hERG current change (%, negative = inhibition) at 1uM” value was 6.05%.
In the case of `CCn1ncc(C2=NOC(C(=O)Nc3ccc(C)cc3)C2)c1C` (stereo not drawn), the “hERG current change (%, negative = inhibition) at 1uM” value is reported as 15.6%.
With `COc1ccccc1N1C(N)=NC(N)=NC12CCCCC2.Cl` the “hERG current change (%, negative = inhibition) at 1uM” value was 17.5%.
